Laboratory results published in PubChem BioAssay AID1347073 (National Center for Advancing Translational Sciences (NCATS), 2019).
Screen size: about 45,000 compounds; about 200 (0.44%) were called active. Roughly 7% stayed inconclusive and do not appear here. Calls follow the shape of the dose curve; as a rule, active = well fitted activation curve with a large enough effect; inconclusive = small, poorly fitted or top-dose-only effect; inactive = no such curve, though single readings can be large or run the other way. This is one part of the list.

Assay: qHTS of TDP-43 Inhibitors: NCGC Sytravon Library Screen; also: 0% is about no effect; nearly all actives have a fitted effect of over 55% in size
Conditions: yeast TDP-43 toxicity rescue, BacTiter-Glo growth, 24 h; series mostly up to 46.1 µM; growth rescue (activation): at the top concentration
Outline: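 TDP-43-expressing yeast, pregrown in raffinose, seeded at OD600 0.02 in galactose medium with compound for 24 hr at 30 deg C. Growth read by BacTiter-Glo luminescence, so rescue of toxicity appears as activation.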
In the case of `COc1cc2c(cc1OC)CN(C(=O)CSc1nnc(C)s1)CC2`, the “growth rescue (activation)” value is reported as inactive: 13.8%. In the case of `CCOC(=O)C1=C(N)Oc2cc(O)ccc2C1c1ccc([N+](=O)[O-])cc1` (stereo not drawn), the “growth rescue (activation)” value is reported as inactive: -2.16%. In the case of `CCN(CC)CC(=O)Nc1c(C)cc(C(C)(C)C)cc1C`, the “growth rescue (activation)” value is reported as inactive: 7.37%. In the case of `Cc1nn(-c2ccccc2)c(N2CCCC2)c1/C=N/NC(=O)c1cc(-c2ccccn2)nc2ccccc12`, the “growth rescue (activation)” value is reported as inactive: 9.1%. In the case of `COc1ccc(N(CC(O)Cn2cnc3ccccc32)S(=O)(=O)c2ccc(C)cc2)cc1` (stereo not drawn), the “growth rescue (activation)” value is reported as inactive: 12.6%. In the case of `NC(=O)c1nsc(C(=O)N(c2ccc3c(c2)OCCO3)C(C(=O)NCC2CCCO2)c2ccc(F)cc2)c1N` (stereo not drawn), the “growth rescue (activation)” value is reported as inactive: 4.22%. In the case of `CC(C)(C)NS(=O)(=O)c1ccc(C(=O)Nc2ccc3c(c2)OCO3)cc1`, the “growth rescue (activation)” value is reported as inactive: 11.8%. With `O=C(COC(=O)c1c(F)cccc1F)NCc1cccs1` the “growth rescue (activation)” value was inactive: 4.19%. With `CCCCOc1ccc(/C=C/C(=O)NC2=Nc3ccccc3NC(C)=C2C(=O)OCC)cc1OC` the “growth rescue (activation)” value was inactive: 15.9%. With `O=S(=O)(Nc1ccccn1)c1ccc(Cl)c2ccccc12` the “growth rescue (activation)” value was inactive: 1.69%. With `CN(Cc1ccccc1)C(=O)CN1C(=O)c2ccccc2S1(=O)=O` the “growth rescue (activation)” value was inactive: 18.5%. In the case of `O=C(O)CC(SCC(=O)Nc1ccc(Br)cc1)C(=O)O` (stereo not drawn), the “growth rescue (activation)” value is reported as inactive: -2.81%. In the case of `COc1cccc(N=CC2=C(O)CC(C)(C)CC2=O)c1`, the “growth rescue (activation)” value is reported as inactive: 28.6%. With `Cc1cc(=O)oc2cc(NC(=O)C3CCCC3)ccc12` the “growth rescue (activation)” value was inactive: 10.2%. With `CN(CCO)C(=O)c1c(NC(=O)c2ccccc2)sc2c1CCCC2` the “growth rescue (activation)” value was inactive: -2.06%. In the case of `Cc1ccc(S(=O)(=O)N(CC(=O)NCc2ccco2)c2ccccc2C)cc1`, the “growth rescue (activation)” value is reported as inactive: 21.3%. In the case of `CN(C(=O)COC(=O)c1ccc(Cl)c(N)c1)c1ccccc1`, the “growth rescue (activation)” value is reported as inactive: -8.7%. With `CCN(CC)S(=O)(=O)c1ccc(C)c(NC(=O)CNCc2ccccc2OC)c1` the “growth rescue (activation)” value was inactive: 2.46%. In the case of `CCN(Cc1ccccc1)C(=O)CSc1nc(C)cc(=O)[nH]1`, the “growth rescue (activation)” value is reported as inactive: 10.8%. In the case of `O=[N+]([O-])c1ccc(Nc2ccc(F)cc2)nc1`, the “growth rescue (activation)” value is reported as inactive: 19.9%. In the case of `COC(=O)c1ccc(Cn2c(C)c(C(=O)NCc3ccco3)sc2=O)o1`, the “growth rescue (activation)” value is reported as inactive: 8.07%. In the case of `NCC1CC2c3ccccc3C1c1ccccc12` (stereo not drawn), the “growth rescue (activation)” value is reported as inactive: 9.1%. For `Cc1ccc(-c2nnc(SCC(=O)N/N=C/c3c(C)nn(-c4ccccc4)c3C)n2-c2ccc(C)cc2)cc1`, the “growth rescue (activation)” value was inactive: -8.89%. For `CC(C)CN(C(=O)CCNC(=O)c1ccc(Cl)cc1)C1CCS(=O)(=O)C1` (stereo not drawn), the “growth rescue (activation)” value was inactive: -15%. In the case of `CC1(C(=O)Nc2cccc(NS(C)(=O)=O)c2)Cc2c(-c3ccc(C(N)=O)cc3)ccnc2O1` (stereo not drawn), the “growth rescue (activation)” value is reported as inactive: 8.09%. For `COc1cc(C(=O)NC2CC(C)(C)NC(C)(C)C2)cc(OC)c1OC`, the “growth rescue (activation)” value was inactive: 8.96%. In the case of `NS(=O)(=O)c1ccc(CNC(=O)c2csc3c2CCCC3)cc1`, the “growth rescue (activation)” value is reported as inactive: -3.47%. With `O=C(Nc1ccc2c(c1)OCO2)C1CCN(Cc2cc3c(cc2O)OCO3)CC1` the “growth rescue (activation)” value was inactive: -12.9%. For `COc1cccc(-c2cnc(C(O)c3cc(C)ccc3C)[nH]2)c1` (stereo not drawn), the “growth rescue (activation)” value was inactive: 9.14%. For `Cc1ccc(SCC(=O)NNC(=O)CNC(=O)c2ccc(Br)cc2)cc1`, the “growth rescue (activation)” value was inactive: -7.76%. With `O=C(/C=C/c1cccs1)c1ccc(Br)cc1` the “growth rescue (activation)” value was inactive: 7.96%. With `COc1ccccc1NS(=O)(=O)c1ccc(C(=O)N2CCCCCC2)cc1` the “growth rescue (activation)” value was inactive: -7.95%. In the case of `CC1(C(=O)NCc2cccc3ccccc23)CCN1Cc1ccc2ccccc2c1` (stereo not drawn), the “growth rescue (activation)” value is reported as inactive: 8.2%. In the case of `CCCCOc1ccc(N(CC(=O)NCC2CCCO2)C(=O)CCC(=O)Nc2nccs2)cc1` (stereo not drawn), the “growth rescue (activation)” value is reported as inactive: -22.8%. For `COc1ccccc1CC(=O)Nc1ccc(C(=O)N2CCCCC2)cc1`, the “growth rescue (activation)” value was inactive: 3.2%. With `CC(=O)NCCn1c(SCC(=O)NCCc2ccc(S(N)(=O)=O)cc2)nc2ccccc2c1=O` the “growth rescue (activation)” value was inactive: 11.6%. In the case of `O=C(CCn1c(=O)[nH]c2ccsc2c1=O)N1CCN(c2ccc([N+](=O)[O-])cc2)CC1`, the “growth rescue (activation)” value is reported as inactive: -3.41%. With `Cn1c(NCc2ccccc2)nc2cc(-c3cccc(C(F)(F)F)c3)sc2c1=O` the “growth rescue (activation)” value was inactive: 13.9%. With `COC(=O)c1ccc(CSc2nnc(-c3ccc4c(c3)OCO4)n2-c2ccccc2)o1` the “growth rescue (activation)” value was inactive: 8.44%. With `Cc1cc(O)ccc1Nc1cc(-c2cccc(N)c2)ncn1` the “growth rescue (activation)” value was inactive: 0.282%. With `CCOC(=O)c1cc(-c2ccc(/C=C3/C(=O)N(c4ccc(C(=O)O)cc4)N=C3C)o2)ccc1Cl` the “growth rescue (activation)” value was inactive: 12.2%. In the case of `COc1ccccc1C(NC(C)=O)c1cc(Cl)c2cccnc2c1O` (stereo not drawn), the “growth rescue (activation)” value is reported as inactive: 3.32%. In the case of `CCOC(=O)/C(=C/c1cn(C)c2ccccc12)NC(=O)c1ccccc1`, the “growth rescue (activation)” value is reported as inactive: 1.43%. With `COC(C(=O)N/N=C/c1ccc(OCC(=O)N2CCOCC2)cc1)c1ccccc1` (stereo not drawn) the “growth rescue (activation)” value was inactive: -0.266%. In the case of `COc1ccccc1CNC(=O)CCNC(=O)c1ccco1`, the “growth rescue (activation)” value is reported as inactive: -16.8%. For `COc1cccc(CN2CCC(C(=O)N3CCN(Cc4ccc5c(c4)OCO5)CC3)CC2)c1`, the “growth rescue (activation)” value was inactive: -26.7%. In the case of `CCOC(=O)c1csc(-c2ccc(OC)c(OC)c2)n1`, the “growth rescue (activation)” value is reported as inactive: 13.6%. With `N#CCOc1ccc(C2=NO[C@@H]3[C@@H]4C[C@@H]([C@H]5C(=O)N(c6ccc7c(c6)OCO7)C(=O)[C@@H]45)[C@H]23)cc1` the “growth rescue (activation)” value was inactive: 6.77%. For `CCCN1Cc2cccc(C(=O)N3CCN(c4ccc(OC)cc4)CC3)c2C1=O`, the “growth rescue (activation)” value was inactive: -5%. In the case of `COc1ccc(Cn2c(=O)[nH]c3cc(C(=O)N4CCN(c5ccc(C(C)=O)cc5)CC4)ccc3c2=O)cc1`, the “growth rescue (activation)” value is reported as inactive: -6.8%. For `COCCn1c(C)cc(C(=O)Cn2nc(C(=O)O)c3ccccc3c2=O)c1C`, the “growth rescue (activation)” value was inactive: 11.3%. For `COc1cccc(C(=O)N2CCC(N3CC(C)OC(C)C3)CC2)c1` (stereo not drawn), the “growth rescue (activation)” value was inactive: 5.06%. For `Cn1c(=O)c2c(ncn2CC(=O)N/N=C/c2ccc(Br)s2)n(C)c1=O`, the “growth rescue (activation)” value was inactive: 2.12%.
